PubChem BioAssay (NCI)
Values joined by “and” are separate entries in the source; they are usually repeats but may differ in a detail not shown here. Equal entries are not always repeated.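 These data come from cells grown in 96-well plates and exposed to compound for 48 hours at five concentrations. GI50: concentration for 50% inhibition of growth. TGI: total growth inhibition.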

system: NCI-H322M lung; test: inhibition of tumour cell growth, NCI panel, 48 h

| Structure (SMILES) | TGI | GI50 [µM] |
| --- | --- | --- |
| O=[N+]([O-])C(=C(N1CCOCC1)N1CCOCC1)/C(Cl)=C(\Cl)[N+](=O)[O-] | 53.9 µM |  |
| CCOC(=O)CCC(NC(=O)c1ccc(Nc2nc3cc(C(F)(F)F)ccc3nc2-c2ccccc2)cc1)C(=O)OCC (stereo unspecified) | > 100 µM |  |
| CC1=NN(C(=O)Cc2ccccc2)C(=O)/C1=C\C=C\c1ccccc1 | > 100 µM |  |
| CCOC(=O)c1ccc(C(=O)/C(C#N)=C2\CCCN2)[nH]1 | > 100 µM |  |
| O=C1CCC2(C=C(Br)C(=O)C(Br)=C2)O1 | 32.7 µM | 17.2 |
| Cc1ccc(S(=O)(=O)N2CCCCN(S(=O)(=O)c3ccc(C)cc3)Cc3ccccc3OCCOCCOc3c4cccc3Cc3cccc5c3OCCOCCOc3ccccc3CN(S(=O)(=O)c3ccc(C)cc3)CCCN(S(=O)(=O)c3ccc(C)cc3)Cc3ccccc3OCCOCCOc3c(cccc3C4)Cc3cccc(c3OCCOCCOc3ccccc3C2)C5)cc1 | > 100 µM |  |
| C=C[C@@]1(C)CC(=O)[C@]2(O)[C@@]3(C)[C@@H](OC(C)=O)CCC(C)(C)[C@@H]3[C@H](OC(C)=O)[C@H](OC(C)=O)[C@@]2(C)O1 | > 100 µM |  |
| COC(=O)c1c(C(=O)OC)c2cc(C(=O)c3ccccc3)ccn2c1Cl | > 100 µM |  |
| COc1ccc(CN(CCc2c[nH]c3ccccc23)Cc2ccc(OC)cc2)cc1 | 10.9 µM |  |
| Cc1cc2oc(=O)[nH]c(=S)c2c(C)c1C | > 100 µM |  |
| [C-]#[O+].[C-]#[O+].[Ir].[O-]c1cccc2cccnc12 | > 100 µM | > 100 |
| O=C(Cc1ccccc1)c1ccc2[nH]c(=O)oc2c1 | > 100 µM |  |
| CCN(CC)Cc1cc(Nc2c3ccccc3nc3c2[nH]c2ccccc23)ccc1O | 4.06 µM |  |
| [N-]=[N+]=Nc1ccc2c(c1)Sc1ccccc1N2CCCCCl | > 100 µM |  |
| CC1N(C)C(=O)OC12CCN(CCCC(=O)c1ccc(F)cc1)CC2 (stereo unspecified) | > 100 µM |  |
| CN(C)Cc1ccc(C(=O)Nc2ccc3ncnc(Nc4ccc(Oc5cccc(F)c5)c(Cl)c4)c3c2)cc1 | 2.71 µM | 1.38 |
| CC(=O)Nc1ccc2c(C)c3c4ccccc4n(C)c3nc2n1 | > 100 µM |  |
| Nc1nc(SCc2ccccc2)c2ncn(Cc3ccccc3)c2n1 | > 100 µM |  |
| O=C1OC2(c3ccccc3Oc3ccccc32)c2ccccc21 | > 100 µM |  |
| COc1ccc(C2C(Cl)C(=O)N2NC(=O)Cc2ccccc2)cc1 (stereo unspecified) | > 100 µM |  |

| Structure (SMILES) | TGI | GI50 [µM] |
| --- | --- | --- |
| C=C1CC[C@@H]2C(C)(C)CCC[C@@]2(C)[C@@H]1Cc1cc(O)ccc1O | 30.3 µM |  |
| CCOC(=O)C1C(=O)c2ccccc2CN1Cc1ccccc1 (stereo unspecified) | > 100 µM |  |
| CC(C)(C)N1NC1C1NN1C(C)(C)C (stereo unspecified) | > 100 µM |  |
| [N-]=[N+]=NC1C(Br)C(=O)NC(=O)N1[C@H]1C[C@H](O)[C@@H](CO)O1 (stereo partly specified) | > 100 µM |  |
| COc1ccc2[nH]c(Cl)c(/C=C3/C(=O)N(C)c4ccccc43)c2c1 | > 100 µM | 53.4 |
| c1ccc(N=C2c3ccccc3C3=NCCCN32)cc1 | > 100 µM |  |
| O=C(O)C1CC(c2ccccc2)=NN1c1ccccc1 (stereo unspecified) | > 100 µM |  |
| CC1(O)/C(=N/O)CC2CC1C2(C)C (stereo unspecified) | > 100 µM |  |
| COc1nc(C)cc2c(=O)n(-c3ccccc3)n(CCCN3CCN(c4ccc(Cl)cc4)CC3)c(=O)c12 | > 50 µM | > 50 |
| CCC1(N=[N+]=[N-])C(=O)Nc2cc(C)ccc2C1=O (stereo unspecified) | > 100 µM |  |
| COc1cc2[nH]c(-c3cccc(N(C)C)c3)cc(=O)c2cc1OC | > 100 µM |  |
| Cn1c2nc3ccccc3c-2cc2ccccc21 | > 28.7 µM and 14 µM |  |
| O=[N+]([O-])c1cccc2nccc(NCC(O)CO)c12 (stereo unspecified) | 40.8 µM |  |
| CC1C[C@]2(C)C(=S)Nc3ccccc3[C@@H]2Nc2ccccc21 (stereo partly specified) | 38.2 µM |  |
| COc1ccc(/C=C2/C[N+](C)(C)C/C(=C/c3ccc(OC)cc3)C2=O)cc1 | > 100 µM |  |
| O=C(Nc1ccc(Cl)cc1)c1cc2ccccc2cc1O | > 100 µM | 2.99 |
| C[C@H]1CCC/C=C/[C@@H]2C[C@H](O)C[C@H]2[C@H](O)[C@@H](S(=O)CCN(C)C)CC(=O)O1 (stereo partly specified) |  | 0.237 |
| C[N+]1(C)CCC(C#N)(c2ccccc2)CC1 | > 100 µM |  |
| CCCCCc1c2nc(c(CCCCC)c3ccc([nH]3)c(CCCCC)c3ccc([nH]3)c(CCCCC)c3nc1C=C3)C=C2 | > 100 µM |  |
| CCOC(=O)n1cncc1CC(NC(=O)Cc1c(C(=O)C=C(C)C)[nH]c2ccccc12)C(=O)OC (stereo unspecified) | 32.6 µM |  |
